# The source gives no read counts; variants with many changes may rest on few reads.
# B1: LINE1-full (parent)
# chain: UACGUAGGUGGUUUUCCCCUGAUAGUGCUAAGGGGGCCUGGAAGUUUGGACUGGGCAGAGCUCAACACAGCGUGGCAAAGUGGCUGUGGCUAGACUGCCUCUCUGGAUUCCUCGUCACUCAGCAGGGCAUCUCUGAGAGAAAUGCC
# Variants of: B1
# Assay: self-cleavage, relative activity (ratio to wild type); higher = more cleavage; in vitro, sequencing; the parent is a self-cleaving ribozyme
row,Variant,self-cleavage
1,A42G A59G A142G,0.11
2,U39C A94U G97A A117G,0.04
3,U39C A78U U132A,1.99
4,A43G A78U U132C,1.34
5,A42U U62C A77C U119G,0.14
6,A42G G82U G89A,0.04
7,A42G U109C U112C A142G,1.41
8,A42U A92G A141G,0.03
9,G41C U112C A136G,2.26
10,G41U A43G U62C,0.06
11,A43G A64U C98U U100C A140U,0.57
12,A42G G53U G122A U130A,1.85
13,A43G A69U A141G,0.09
14,G40A A50U U85A,0.04
15,U39C U73A C123U,0.47
16,A42G U73A U87A,0
17,A42G U96A A107G,0.18
18,G41A U115A G127U,1.23
19,A42G G70A A107G U132C U134A,0.01
20,U39C G54A U100A U134A,0.06
21,U39C A77G G114A,2.32
22,A42G A64U A65U A142G,0.05
23,U39C U73C A124G,0.86
24,U39C G44A A69U C99U A107G,0.02

row,Variant,self-cleavage
1,A42G G72U G105A U130C U134G,1.62
2,A42U A57G A59G,0.16
3,A42G A64U U81A,0.44
4,A42G A117G A136G A140G,0.98
5,A42C U81C U115A,0.71
6,A42G A64G A138U,0.42
7,A42G U47A U109A U112C A142G,0
8,U39C U87A U115C,0.47
9,G41U G82A A124G,0.95
10,U39C G54A U85C C98U U102A U115C,0.09
11,A42G U109C A141U,1.04
12,A43G G48U U85A,0.07
13,A42G U47A A57U A138G A140U,0.03
14,A43G A78U A92G U132C C133U,0.19
15,U39C U46C U52C A77U U91C A141G,0
16,A42C U73A U81A A124C,1.47
17,A42G U45G A92G U130C A138G,0
18,A42U A65G U104C,0
19,U39C A124U U130C,1.23
20,U39C G70A A136G,0.05
21,A42G U46C U96C G125A,0.18
22,A42G U104A A141G,1.55
23,A42U U91C A140G,0.49
24,U39C A121U A141G,1.14

row,Variant,self-cleavage
1,G40A A129G A141G,0.16
2,A42U U45C A129G,0.64
3,U39G A94U C146U,0.44
4,A42G A64C A92G,0
5,A42G U85A A142G,0.15
6,G41U U45C A64U G83A U130C,0.1
7,G40A A77U A121U A124G,0.36
8,U39C G44U U62A A141G,0.06
9,A42G C56U U96C,0.26
10,G40U U45A U47A,0.97
11,U39C U85C U108A U109C,0
12,A43G A77U U115C,1.48
13,A42U A117G C146U,1.78
14,U39C U81C U108C C113A A142C,1.89
15,A43G U47C U87A,0.2
16,G41C A64U U96C,0.04
17,A42G A94U A141G,0.27
18,A42G U62C U100C A124U,0.06
19,A42G C90U U115C A136G A138G,0
20,A42G A67G U85C,0
21,A42U A94G U96A,0.16
22,A42G A92U U104A,0.51
23,G40A A64G A136G A142G,0.17
24,U39C G53A G54A A65G A141G,0.06

row,Variant,self-cleavage
1,A42U U102A C116A,1.99
2,U39G A65G G70A U85C,0.06
3,U39C U73C G97A U119C,0.09
4,A42U A94G A140G,0.05
5,U39C G41A C111U A117G G122A,1.62
6,A42G U73A U134A,0.84
7,A42U A57G U73A U100C,2.53
8,G41U U85C C113U,0.11
9,A42G A57U A65G U130A,0
10,U39C U102A G106A,1.42
11,A42G U62C A64U A78G A117U A140C,0
12,U39C C113U U143C,0.78
13,G40A U46A U47C A50G,0.92
14,A43G A59U U73C,1.35
15,A43G G89U U100C,0.07
16,A43G A65G C103U,0.05
17,U39C U87C C120U,0.12
18,A42U U73G U108C,0.94
19,U39C U81A A94G U96A,0.13
20,U39C U45C C56U A94U U109A A142G,0.01
21,A43G G53A U115G U119C,0.89
22,A42C U87A C103U U112C,0.04
23,A43G U45C A57U U134C A140G,0.13
24,A42G A79G G125A,1.57

row,Variant,self-cleavage
1,A43G A65U A136G,0.25
2,A42G U109C A140G,1.5
3,A42U A43U A78G,0.38
4,U39C U91A A107G A129G U143C,0
5,A42G U62A C76U U119A,0.05
6,A42U C56U U100C,0.21
7,U39C U104C U134C,1.67
8,U39C U87C U102A A140G,0
9,A43G A50G G88A A107G,0
10,U39C U52C A57G G72A U81A U102C C123U A140G A142G,0.03
11,A42G U109C C128U,1.26
12,A43G A67G A117U A138G,0.63
13,A42G A65G U104A,0
14,U39C U46A A67G U132C,0.64
15,A42G A69U A129G,0.09
16,U39G U52G U62C U100A,0
17,A42U A94C G126U,0.14
18,A42G A67G U132C,0.55
19,A42U U108C A117U,0.51
20,G41A C123U U134C,1.34
21,A42G A57U A78G A129U,0.12
22,A42G G48A A65U A79G G105A G139A,0.13
23,A43G U47A A59G,0.03
24,A43G U47A A121G,1.6

row,Variant,self-cleavage
1,U39C A78G A117U,1.19
2,A42G U47C G74A,0.77
3,A42G U85C U130C A141U,0.14
4,A42G U73A U115C G144C C145U,2.35
5,A42G A94G U112C,0.21
6,A42G U85C A117G,0
7,U39C C84U U115A,0.12
8,A43G A67G A124U,0.15
9,U39C C56A U115C,0.06
10,A43G C56A A64U G127C,0.06
11,G41A C71U U73C A79G G139C A140G A142G,0.89
12,A43G U47A A57U,0.12
13,A42U A78G U91C,0.18
14,G41A A59G G126A A141G,0.02
15,A43G A69U U134A,0.13
16,A42G U45C A59G C103U A140C,0.66
17,U39C U52C U112G C113U A142G U143C C145U,0.76
18,A42U U100A U134A,0.47
19,A43G G60A U130C,0.04
20,A42U A77U U81A,2.03
21,A43G C76U U134C,2.42
22,A43G C71A C118U U134C A142G,0.13
23,A43G A140G C146G,0.7
24,U39G A138G A142G,2.34

row,Variant,self-cleavage
1,U39C A78G A107G,2.59
2,A43G A79G C103U,1.07
3,A42G A64C A67G U134C A141G,0
4,U39C A92G A140G,0.12
5,A42U A64G A77G U112A A136G,0
6,A42G U45A A65U U81C,0.29
7,A43G A57G U62C A64U A107G A136G,0
8,A42G A65U A77G A92U,0.05
9,A42G A57G U112A A140U,1.5
10,U39C G54A A77G U102C U112C,0.69
11,A42G U100C A121U A138G,1.17
12,A42G U73A U104C,2.73
13,U39C A136G A142G,1.55
14,A42U A78U U115A,1.06
15,A42G A124G G139U,0.77
16,G40A A69G C120U,0.6
17,A42G G70U A140G,0.03
18,A42G A57G A78U C90U A138G,0.09
19,A42G A129G U130G,1.69
20,A42U U52C U134C,1.11
21,A42U U104C G106A A129G,1.69
22,A43C G60A A69G U81C A124U,0
23,A42U U102C A121G,0
